Test results published in the RNAGym collection of RNA variant scans (doi:10.1073/pnas.2313332121).
This sample is rich in variants without activity.

B1: TPR 5TU (parent)
chain: GGAUCUUCUCGAUCUAACAAAAAAGACAAAUCUGCCACAAAGCUUGAGAGCAUCUUCGGAUGCAGAGGCGGCAGCCUUCGGUGGCGCGAUAGCGCCAACGUUCUCAACUAUGACACGCAAAACGCGUGCUCCGUUGAAUGGAGUUUAUCAUG

Variants of: B1
Test: polymerase ribozyme fitness, log enrichment relative to wild type (log ratio); higher = more active; in vitro selection for triplet polymerase activity
Method in brief: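 In triplicate, a single round of in vitro selection was run on each mutant library, PCR-built and transcribed, covering one subunit of a heterodimeric triplet polymerase ribozyme. Frozen incubation at −7 °C followed annealing with a biotinylated primer, partner subunit and triplets, and extended constructs were then gel-excised, streptavidin-captured and taken through RT-PCR. Fitness is the logarithm of genotype enrichment over wild-type enrichment, from inverse-variance-weighted replicate averages of Illumina-sequenced inputs and outputs. […] only genotypes with ≥10 input reads and ≥1 read per output were kept.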

Variant | polymerase ribozyme fitness (log ratio)
C69G C95U C99A C105G C118A G136U | ≤ -4.2
C76A G88U C105G A142G | ≤ -4.2
G65A G70A C85G A106G U109A G117C U146C | ≤ -4.2
U77G G86A G133A | ≤ -4.2
U77C G86U C108A | ≤ -4.2
A66G U78C A138G | ≤ -4.2
G67A C75G G83U G128U | ≤ -4.2
G68C C85U A89C | ≤ -4.2
G65A A66G G70A C85U G86U G124U C131A | ≤ -4.2
G71C C93A A97C C103G U104G | ≤ -4.2
C69G G81C U109C | ≤ -4.2
G62A G67C G94A C95A A121C C149G | ≤ -4.2
A73C G84C A138G | ≤ -4.2
G62C U130A | ≤ -4.2
U77C A97G A121G | ≤ -4.2
A66U A73G C85G A113G U144C | ≤ -4.2
A66U G83U C85A C105A A106U C131G G143C | ≤ -4.2
G68C G80A C93U | ≤ -4.2
G67A C87A A110U A121G | ≤ -4.2
A66C U82G C96U C118G G143C | ≤ -4.2
C72A U77A | ≤ -4.2

Variant | polymerase ribozyme fitness (log ratio)
G71C G84U A97C | ≤ -4.2
A66C U134G | ≤ -4.2
U61A A73G C93G A137G | ≤ -4.2
A66U C123U G126C U139G G143U | ≤ -4.2
G68A A89U | ≤ -4.2
U61A A110G | ≤ -4.2
G68A C85U G94U U101G C149G U151C | ≤ -4.2
C63A A91G U102A | ≤ -4.2
U61A C72G | ≤ -4.2
C63A A66G C93U | ≤ -4.2
G71A A91U C103A G117U | ≤ -4.2
G71A C96G U104C C131G | ≤ -4.2
U61A A73G G83A A115C | ≤ -4.2
A73C G86U U109G | ≤ -4.2
G68C G70A G83U U144A | ≤ -4.2
G68U G86A | ≤ -4.2
C69U U102G G126A C132U U134A U151G | ≤ -4.2
G65U U139A | ≤ -4.2
G70A U78C G94C A98G G100C U104G G117A U151A G152U | ≤ -4.2
C76U C93G G141C | ≤ -4.2
G68A C96A C125A | ≤ -4.2

Variant | polymerase ribozyme fitness (log ratio)
C72G G88A C99U G133C | ≤ -4.2
A66U C87U | ≤ -4.2
A66U G74U C149G | ≤ -4.2
C63A G100A | ≤ -4.2
A60U G67C A73G C103G U146A | ≤ -4.2
C69U C75U U82G U148C | ≤ -4.2
U77G C99G | ≤ -4.2
U61G A89C C93A C103A | ≤ -4.2
A66G G83A A89C G100C C103G C114U A115U G124U | ≤ -4.2
A73G A91G U102A G143A | ≤ -4.2
G68A C85G A106G A137G A138U | ≤ -4.2
G65U A97C C99G C125U | ≤ -4.2
A73G G84C C96U C114U A137C | ≤ -4.2
A73G C87A G117A | ≤ -4.2
G74U U77C C96A A97U C116G G128A U139A | ≤ -4.2
C75G C87A A120C G141C | ≤ -4.2
U61A U82G G83U A89G G92C | ≤ -4.2
U61C A121G U139G G140A | ≤ -4.2
G74C C108A A110G | ≤ -4.2
A66C C93G A107U | ≤ -4.2
G71A C95A C99A U127C | ≤ -4.2

Variant | polymerase ribozyme fitness (log ratio)
C63A C103G C105A | ≤ -4.2
A66U C75G C85U G94A G143C | ≤ -4.2
A64G G68U | ≤ -4.2
C72U G88U A97G G128C | ≤ -4.2
C69A U111C | ≤ -4.2
C72U C79A G94C U139C | ≤ -4.2
U77A U82C G141C | ≤ -4.2
C75G C93G U111C A113U G136A U145A | ≤ -4.2
G62A C108A C125A G140C | ≤ -4.2
G70U C87A A91G U111C A137U | ≤ -4.2
G68A C96U U101G C131U | ≤ -4.2
G68A G70A C76U C96G C99A U104A U139A | ≤ -4.2
G62C C85A U90G G141U A142C | ≤ -4.2
U77C A91U A142C | ≤ -4.2
A73C G88U U130G | ≤ -4.2
A64C G71A C93A A122G | ≤ -4.2
G71C C131A U134G G136A U139A | ≤ -4.2
U61G G74C | ≤ -4.2
G71U C79G | ≤ -4.2
C76G G94C A150C | ≤ -4.2
